System: CT26 tumor cells
Assay: CT26 tumor growth and survival after vaccination (Example 1)
Conditions: CT26-bearing Balb/c mice; sc injections at days 5, 8, 12, 15, 19, 22, 26
Method: The effectiveness of the ANCER™-designed CT26 vaccine was tested in Balb/c mice. Mice were separated into three groups: 1) PBS control; 2) poly-ICLC (vehicle); 3) ANCER™-selected CT26 Neoantigen Peptides+poly-ICLC. • Group 1: PBS, sc injections at days 5, 8, 12, 15, 19, 22, and 26. • Group 2: poly-ICLC, 50 μg, sc injections at days 5, 8, 12, 15, 19, 22, and 26. • Group 3: 5 μg/ANCER™-selected CT26 Neoantigen Peptide (100 μg total ANCER™-selected CT26 Neoantigen Peptides)+50 μg poly-ICLC, sc injections at days 5, 8, 12, 15, 19, 22, and 26.
All mice (N=10 mice per group) were injected 3*10^5 CT26 tumor cells in 0% Matrigel at day 0. Mice were sacrificed once the tumor volume reached 2,000 mm^3 or at day 45, whichever came first.

poly-ICLC
tumor burden compared to Group 1 (mice immunized with PBS): no reduction in tumor burden

Reference: patent US20210154280A1, “NEO-EPITOPE VACCINES AND METHODS OF TREATING CANCER” (Epivax Oncology, Inc., priority 2019, published 2021)
